Results reported in the antibiotic and cytotoxicity screens of Wong et al. (2023).
This is one part of the list.

How the values were obtained:
[1] = test system: HSkMC (human skeletal muscle cells); test: cytotoxicity call (relative viability < 0.9); conditions: 10 µM
[2] = test system: HepG2; test: cytotoxicity call (relative viability < 0.9); conditions: 10 µM
[3] = test system: S. aureus RN4220; test: growth inhibition call (relative growth <= 0.2); conditions: 50 µM

Compound | cytotoxicity call [1] | cytotoxicity call [2] | growth inhibition call [3]
C[C@@H]1CN([C@H](C)CO)C(=O)c2cc(C#Cc3ccccc3F)cnc2O[C@H]1CN(C)S(=O)(=O)c1ccccc1 | inactive | inactive | inactive
C[C@H]1CC/C=C\[C@H]2O[C@@]34C=CCN(c5ccc(Cl)cc5)C(=O)[C@H]3N([C@@H](C)CO)C(=O)[C@]4(C)[C@@H]2C(=O)O1 | inactive | inactive | inactive
CC(C)N1C[C@H](C)[C@@H](CN(C)Cc2ccc(Cl)c(Cl)c2)Oc2c(C(=O)Nc3ccncc3)cccc2C1=O | inactive | inactive | inactive
COc1ccc(S(=O)(=O)N(C)C[C@H]2Oc3ccc(NC(=O)CCCN(C)C)cc3C(=O)N([C@H](C)CO)C[C@H]2C)cc1 | inactive | inactive | inactive
Cc1ccc(S(=O)(=O)N(C)C[C@@H]2Oc3ccc(NC(=O)Nc4cccc5ccccc45)cc3C(=O)N([C@H](C)CO)C[C@@H]2C)cc1 | inactive | inactive | inactive
COc1ccc(CNC(=O)C[C@H]2C[C@@H]3c4cc(NS(=O)(=O)c5ccc(F)cc5)ccc4O[C@@H]3[C@@H](CO)O2)cc1 | inactive | inactive | inactive
CN1C(=O)c2cc(NC(=O)c3ccc(F)cc3)ccc2OC[C@H]2O[C@@H](CC(=O)N3CCOCC3)CC[C@@H]21 | inactive | inactive | inactive
C[C@@H]1CN([C@@H](C)CO)C(=O)Cc2cc(NC(=O)C3CC3)ccc2O[C@@H]1CN(C)Cc1ccc2c(c1)OCO2 | inactive | inactive | inactive
O=C(C[C@@H]1C=C[C@H](NC(=O)CN2CCOCC2)[C@H](CO)O1)NCCc1ccncc1 | inactive | inactive | inactive
C[C@@H]1CCCCO[C@@H](CN(C)CC2CCCCC2)[C@H](C)CN([C@H](C)CO)C(=O)c2cc(NC(=O)Nc3ccc4c(c3)OCO4)ccc2O1 | inactive | inactive | inactive
O=C(C[C@H]1C[C@@H]2c3cc(NC(=O)c4ccc5c(c4)OCO5)ccc3O[C@@H]2[C@H](CO)O1)NCc1ccccn1 | inactive | inactive | inactive
CCC(=O)N[C@H]1C=C[C@H](CC(=O)OC)O[C@@H]1CO | inactive | inactive | inactive
C[C@@H]1CN([C@@H](C)CO)C(=O)Cc2cc(NC(=O)Nc3ccc4c(c3)OCO4)ccc2O[C@H]1CN(C)C(=O)Nc1cccc2ccccc12 | inactive | inactive | inactive
Cc1ccc(S(=O)(=O)N(C)C[C@H]2Oc3ccc(NC(=O)NC(C)C)cc3C(=O)N([C@H](C)CO)C[C@@H]2C)cc1 | inactive | inactive | inactive
C[C@H]1CN([C@@H](C)CO)C(=O)c2cc(NS(=O)(=O)c3cn(C)cn3)ccc2O[C@@H]1CN(C)Cc1ccc(C(=O)O)cc1 | inactive | inactive | inactive
Cc1noc(C)c1NC(=O)Nc1cccc2c1O[C@@H](CN(C)Cc1ccc(-c3ccccc3)cc1)[C@H](C)CN([C@H](C)CO)C2=O | inactive | inactive | inactive
Cc1noc(C)c1NC(=O)Nc1ccc2c(c1)C(=O)N([C@@H](C)CO)C[C@@H](C)[C@@H](CN(C)C(=O)Nc1c(C)noc1C)OCCCC[C@@H](C)O2 | inactive | inactive | inactive
CCOC(=O)[C@H](Cc1ccccc1)NC(=O)Cn1cc(C(=O)NO)nn1 | inactive | inactive | inactive
CC(C)(C)OC(=O)N1CC(C(=O)O)C1 | inactive | inactive | inactive
C[C@@H]1CCCCO[C@H](CN(C)C(=O)C2CCCCC2)[C@@H](C)CN([C@H](C)CO)C(=O)c2cc(NC(=O)Nc3ccc(F)cc3)ccc2O1 | inactive | inactive | inactive
C[C@@H]1CN([C@H](C)CO)C(=O)c2cccc(NS(=O)(=O)c3ccc(Cl)cc3)c2O[C@@H]1CN(C)Cc1ccc(Oc2ccccc2)cc1 | inactive | inactive | inactive
C[C@H](CO)N1C[C@H](C)[C@@H](CN(C)S(C)(=O)=O)Oc2ccc(NS(=O)(=O)c3ccccc3)cc2C1=O | inactive | inactive | inactive
COc1cc(N2C[C@@H]3C[C@H](C(=O)NCCN(C)C)N(C)[C@@H]3C2)ncn1 | inactive | inactive | inactive
COc1ccc(CN(C)C[C@H]2OCCCC[C@@H](C)Oc3ccc(NC(=O)c4ccccc4)cc3C(=O)N([C@H](C)CO)C[C@H]2C)cc1 | inactive | inactive | inactive
COc1ccc(NC(=O)Nc2ccc3c(c2)C(=O)N([C@H](C)CO)C[C@@H](C)[C@H](CN(C)Cc2ccc4c(c2)OCO4)OCCCC[C@H](C)O3)cc1 | inactive | inactive | inactive
COc1ccc(NC(=O)N(C)C[C@H]2OCCCC[C@H](C)Oc3ccc(NS(=O)(=O)c4ccc(C)cc4)cc3C(=O)N([C@@H](C)CO)C[C@H]2C)cc1 | inactive | inactive | inactive
COc1ccc(NC(=O)N(C)C[C@@H]2Oc3ccc(NC(=O)Nc4cccc5ccccc45)cc3CC(=O)N([C@H](C)CO)C[C@@H]2C)cc1 | inactive | inactive | inactive
COc1ccc(S(=O)(=O)Nc2ccc3c(c2)C(=O)N([C@@H](C)CO)C[C@@H](C)[C@@H](CN(C)CC2CCCCC2)OCCCC[C@@H](C)O3)cc1 | inactive | active | inactive

Compound | cytotoxicity call [1] | cytotoxicity call [2] | growth inhibition call [3]
CN(C)CCCN1c2ccccc2CCc2ccccc21.Cl | inactive | active | inactive
COc1ccc(NC(=O)Nc2ccc3c(c2)C(=O)N([C@@H](C)CO)C[C@@H](C)[C@H](CN(C)C(=O)Nc2c(C)noc2C)OCCCC[C@H](C)O3)cc1 | inactive | inactive | inactive
C[C@@H]1CN([C@@H](C)CO)C(=O)c2cc(NS(C)(=O)=O)ccc2O[C@@H](C)CCCCO[C@H]1CN(C)S(=O)(=O)c1ccc(F)cc1 | inactive | inactive | inactive
COCCCNC(=O)[C@@]1(Cc2ccccc2N=[N+]=[N-])N=C(c2ccc(OCCCO)cc2)O[C@H]1c1ccccc1 | inactive | inactive | inactive
C[C@@H]1CN([C@H](C)CO)C(=O)c2cc(NS(C)(=O)=O)ccc2O[C@@H](C)CCCCO[C@H]1CN(C)S(=O)(=O)c1cn(C)cn1 | inactive | inactive | inactive
C[C@H](CO)N1C[C@H](C)[C@@H](CN(C)Cc2ccc(C(F)(F)F)cc2)OCCCC[C@H](C)Oc2ccc(NC(=O)Nc3ccc4c(c3)OCO4)cc2C1=O | inactive | inactive | inactive
COc1ccc(NC(=O)N(C)C[C@H]2Oc3ncc(C#CCN(C)C)cc3C(=O)N([C@H](C)CO)C[C@H]2C)cc1 | inactive | inactive | inactive
O=c1[nH]c(=O)n([C@H]2C[C@H](O)[C@@H](CO)O2)cc1Br | inactive | inactive | inactive
CC1(Cn2ccnn2)C(C(=O)O)N2C(=O)CC2S1(=O)=O (stereo not given) | inactive | inactive | active
COc1ccc(COC[C@]23N=C4SCc5ccccc5C(=O)N4[C@H](c4ccccc4O2)[C@H]3CO[Si](C)(C)C(C)(C)C)cc1 | inactive | inactive | inactive
C[C@H](CO)N1C[C@H](C)[C@@H](CN(C)S(C)(=O)=O)Oc2cc(C#CCN(C)C)ccc2S1(=O)=O | inactive | inactive | inactive
CCOC(=O)/C(C)=N\O | inactive | inactive | inactive
CC(C)NC(=O)N(C)C[C@@H]1OCc2cnnn2CCCC(=O)N([C@@H](C)CO)C[C@@H]1C | inactive | inactive | inactive
C[C@H](CO)N1C[C@H](C)[C@H](CN(C)CC2CC2)Oc2ccc(NC(=O)CCN3CCOCC3)cc2C1=O | inactive | inactive | inactive
CCCN(C)C[C@@H]1OCCCC[C@@H](C)Oc2ccc(NS(=O)(=O)c3ccc(Cl)cc3)cc2C(=O)N([C@@H](C)CO)C[C@@H]1C | inactive | inactive | inactive
CC(=O)N1[C@H](Cn2cncn2)C[C@H]2CN(C(N)=O)CC[C@H]21 | inactive | inactive | inactive
CC(C)NC(=O)N(C)C[C@H]1Oc2ccc(NC(=O)CCCN(C)C)cc2C(=O)N([C@H](C)CO)C[C@@H]1C | inactive | inactive | inactive
CO[C@@H]1CN(C)C(=O)c2ccc(NC(=O)CC(F)(F)F)cc2OC[C@@H](C)N(S(=O)(=O)c2cn(C)cn2)C[C@@H]1C | inactive | inactive | inactive
CCSC(=S)N[C@H]1CCS(=O)(=O)C1 | inactive | inactive | inactive
COc1ccc(NC(=O)Nc2ccc3c(c2)C(=O)N([C@H](C)CO)C[C@H](C)[C@H](CN(C)S(=O)(=O)c2ccccc2)OCCCC[C@@H](C)O3)cc1 | inactive | inactive | inactive
CC(/C=C/C(=O)NO)=C\c1cccc(OC[C@@H]2[C@H]3C[C@H]4c5[nH]c6ccccc6c5CCN4C[C@@H]3CC[C@@H]2O)c1 | inactive | inactive | inactive
Oc1cc(O)c2c(c1)O[C@H](c1ccc(O)c(O)c1)[C@H](O)[C@H]2c1c(O)cc(O)c2c1O[C@H](c1ccc(O)c(O)c1)[C@@H](O)C2 | inactive | inactive | inactive
COc1ccc(NC(=O)N[C@H]2CC[C@H](CCNC(=O)CN3CCOCC3)O[C@H]2CO)cc1 | inactive | inactive | inactive
Cc1noc(C)c1S(=O)(=O)N(C)C[C@H]1OCCCC[C@@H](C)Oc2ccc(NS(=O)(=O)c3cn(C)cn3)cc2C(=O)N([C@@H](C)CO)C[C@@H]1C | inactive | inactive | inactive
COCC#Cc1ccc([C@H]2[C@H](CO)N3C(=O)CN(C(=O)CN4CCOCC4)C[C@@H]23)cc1 | inactive | inactive | inactive
O=C(NC[C@@H](O)CO)c1c(I)c(C(=O)NC[C@@H](O)CO)c(I)c(N(CCO)C(=O)CO)c1I | inactive | inactive | inactive
COc1ccc(CCNC(=O)[C@@]2(Cc3ccccc3I)c3ccccc3C(=O)N(C3CCCCC3)[C@H]2c2ccc(CO)cc2)cc1 | inactive | inactive | inactive
